*1 amine or outer side, *2 acyl side, *3 side chain or, on linkers, in order; H or OH if unused. Where a SMILES comes first, the peptide text is derived from it. [ ]: non-standard residue; d: D form. The star is where a group is joined. ξ: configuration not given here. ξ(3-Amino-2-oxohex-5-enoyl) = C=CCC(N[*:1])C(=O)C(=O)[*:2]; Pro(3R,4S-CMe2) = CC1(C)[C@@H]2[C@@H](C(=O)O)NC[C@@H]21; Pro(4,4-S(CH2)3S) = O=C(O)[C@@H]1CC2(CN1)SCCCS2; Benzoyl(3-COOH) = O=C(O)c1cccc(C(=O)*)c1; Morpholine(3S-CO) = O=C(O)[C@@H]1COCCN1; Benzoyl(2-COOH) = O=C(O)c1ccccc1C(=O)*; X19 = CCC[C@@H](N[*:1])C(=O)C(=O)[*:2]; Pro(4R-Me) = C[C@H]1CN[C@H](C(=O)O)C1; Isobutyloxycarbonyl = CC(C)COC(=O)*; ξPhg(3-Cl) = NC(C(=O)O)c1cccc(Cl)c1; Hyp = O=C(O)[C@@H]1C[C@@H](O)CN1; X2 = CCCC(N[*:1])C(=O)C(=O)[*:2]; X61 = O=C(O)[C@@H]1CCCCC1C(=O)*; Chg = N[C@H](C(=O)O)C1CCCCC1; Phg = N[C@H](C(=O)O)c1ccccc1; Tle = CC(C)(C)[C@H](N)C(=O)O; X17 = O=C(O)Cc1ccccc1CC(=O)*; X9 = C[C@H](C(=O)*)c1ccccc1; ξChg = NC(C(=O)O)C1CCCCC1; ξPhg = NC(C(=O)O)c1ccccc1; ξTle = CC(C)(C)C(N)C(=O)O; Orn = NCCC[C@H](N)C(=O)O; X29 = Cc1cccc(C)c1C(=O)*; Boc = CC(C)(C)OC(=O)*; ξNle = CCCCC(N)C(=O)O; Bn = c1ccc(C*)cc1; OtBu = CC(C)(C)O*; tBu = CC(C)(C)*; MEM = COCCOC*
target: HCV NS3/NS4A protease (strain 1a) (Hepatitis C virus genotype 1a, UniProt P27958); assay: biochemical; details: Compounds prepared by Solid Phase Synthesis, Table 3; read-out: Ki* CLASS

| Structure (SMILES) | Ki |
| --- | --- |
| CCCC(NC(=O)[C@@H]1C[C@@H](OCc2ccccc2)CN1C(=O)C(NC(=O)c1c(C)cccc1C)C1CCCCC1)C(=O)C(=O)NCC(=O)NC(C(N)=O)c1ccccc1 (some centres unmarked) (X29-[ξChg][Hyp](Bn)[X2]G[ξPhg]-NH2) | 101 to 1000 nM |
| CCCC(NC(=O)[C@@H]1C[C@@H](OC(C)(C)C)CN1C(=O)[C@@H](NC(=O)Cc1ccccc1CC(=O)O)C1CCCCC1)C(=O)C(=O)NCC(=O)N[C@H](C(N)=O)c1ccccc1 (some centres unmarked) (X17-[Chg][Hyp](tBu)[X2]G[Phg]-NH2) | 1 to 100 nM |
| CCCC(NC(=O)[C@@H]1C[C@@H](OC(C)(C)C)CN1C(=O)[C@@H](NC(=O)OC(C)(C)C)C1CCCCC1)C(=O)C(=O)NCC(=O)N[C@@H](CCC(=O)OC(C)(C)C)C(N)=O (some centres unmarked) (Boc-[Chg][Hyp](tBu)[X2]GE(OtBu)-NH2) | > 1000 nM |
| CCCC(NC(=O)[C@@H]1C[C@@H](OC(C)(C)C)CN1C(=O)[C@@H](NC(=O)c1ccccc1C(=O)O)C1CCCCC1)C(=O)C(=O)NCC(=O)NC(C(N)=O)c1cccc(Cl)c1 (some centres unmarked) ({Benzoyl(2-COOH)}-[Chg][Hyp](tBu)[X2]G[ξPhg(3-Cl)]-NH2) | 101 to 1000 nM |
| CCCC(NC(=O)[C@@H]1C[C@@H](OCc2ccccc2)CN1C(=O)[C@H](CCCNC(=O)C1CCCC[C@H]1C(=O)O)NC(=O)OCC(C)C)C(=O)C(=O)NCC(=O)N[C@H](C(N)=O)c1ccccc1 (some centres unmarked) (Isobutyloxycarbonyl-[Orn](X61)[Hyp](Bn)[X2]G[Phg]-NH2) | > 1000 nM |
| CCCC(NC(=O)[C@@H]1C[C@@H](OCc2ccccc2)CN1C(=O)[C@H](CCCNC(=O)c1cccc(C(=O)O)c1)NC(=O)OCC(C)C)C(=O)C(=O)NCC(=O)N[C@H](C(N)=O)c1ccccc1 (some centres unmarked) (Isobutyloxycarbonyl-[Orn](Benzoyl(3-COOH))[Hyp](Bn)[X2]G[Phg]-NH2) | 101 to 1000 nM |
| CCCCC(NC(=O)CNC(=O)C(=O)C(CCC)NC(=O)[C@@H]1C[C@@H](OCOCCOC)CN1C(=O)C(NC(=O)C1CCCC[C@H]1C(=O)O)C1CCCCC1)C(N)=O (some centres unmarked) (X61-[ξChg][Hyp](MEM)[X2]G[ξNle]-NH2) | 101 to 1000 nM |
| CCCCC(NC(=O)CNC(=O)C(=O)C(CCC)NC(=O)[C@@H]1C[C@@H](OCOCCOC)CN1C(=O)C(NC(=O)c1cccc(C(=O)O)c1)C1CCCCC1)C(N)=O (some centres unmarked) ({Benzoyl(3-COOH)}-[ξChg][Hyp](MEM)[X2]G[ξNle]-NH2) | > 1000 nM |

same assay, conditions: HCV protease continuous assay results, Table 1; read-out: Ki* Range

| Ki | Structure (SMILES) |
| --- | --- |
| > 1000 nM | CCCCCC(NC(=O)[C@@H]1C[C@@H](OC(C)(C)C)CN1C(=O)[C@@H](NC(=O)OCC(C)C)C(C)(C)C)C(=O)C(=O)NCC(=O)O (some centres unmarked) [Example 260] |
| > 1000 nM | CCCC(NC(=O)[C@@H]1C[C@@H](OCCOc2ccccc2)CN1C(=O)OCc1ccccc1)C(=O)C(=O)NCC(=O)NC(C(=O)N(C)C)c1ccccc1 (some centres unmarked) [Example 241] |
| > 1000 nM | CCCC(NC(=O)[C@@H]1CCCN1C(=O)[C@@H](NC(=O)OCC(C)C)C(C)C)C(=O)C(=O)NCC(=O)N1CCC(C(=O)O)CC1 (some centres unmarked) [Example 22] |
| > 1000 nM | CCCC(NC(=O)[C@@H]1CCCN1C(=O)[C@@H](NC(=O)OCC(C)C)C(C)C)C(=O)C(=O)NCC(=O)O (some centres unmarked) [Example 9] |
| 101 to 1000 nM | CCCC(NC(=O)[C@@H]1CC2(CN1C(=O)[C@@H](NS(=O)(=O)c1ccc(NC(C)=O)cc1)C1CCCCC1)SCCCS2)C(=O)C(=O)NCC(=O)NC(C(=O)C(C)C)c1ccccc1 (some centres unmarked) [Example 125] |

| Structure (SMILES) | Ki |
| --- | --- |
| CCCC(NC(=O)[C@@H]1C[C@@H](C)CN1C(=O)[C@@H](NC(=O)OCC(C)C)C(C)(C)C)C(=O)C(=O)NCC(=O)NC(C(=O)N(C)C)c1ccccc1 (stereo partly drawn) [Example 263] (Isobutyloxycarbonyl-[Tle][Pro(4R-Me)][X2]G[ξPhg]-NMe2) | 101 to 1000 nM |
| CCCC(NC(=O)[C@@H]1CC2(CN1C(=O)[C@@H](NC(=O)[C@@H](C)c1ccccc1)C(C)(C)C)SCCCS2)C(=O)C(=O)NCC(=O)NC(C(=O)N(C)C)c1ccccc1 (some centres unmarked) [Example 187] (X9-[Tle][Pro(4,4-S(CH2)3S)][X2]G[ξPhg]-NMe2) | 1 to 100 nM |
| C=CCC(NC(=O)[C@@H]1[C@@H]2[C@H](CN1C(=O)C(NC(=O)OC(C)(C)C)C(C)(C)C)C2(C)C)C(=O)C(=O)NCC(=O)N[C@H](C(=O)N(C)C)c1ccccc1 (stereo partly drawn) [Example 339] (Boc-[ξTle][Pro(3R,4S-CMe2)][ξ(3-Amino-2-oxohex-5-enoyl)]G[Phg]-NMe2) | 1 to 100 nM |

same assay, conditions: Table 4; HCV NS3/NS4A protease, spectrophotometric assay, 30° C., pH 6.5; read-out: Ki* Range

| Structure (SMILES) | Ki |
| --- | --- |
| CC(C)COC(=O)N[C@H](C(=O)N1C[C@@H]2C([C@H]1C(=O)N[C@@H](CC(C)C)C(=O)C(=O)NCC(=O)N[C@H](C(=O)N(C)C)c1ccccc1)C2(C)C)C1(C)CCCCC1 (some centres unmarked) | 1 to 100 nM |
| CCC[C@@H](NC(=O)[C@@H]1COCCN1C(=O)[C@@H](NC(=O)OCC(C)C)C1CCCCC1)C(=O)C(=O)NCC(=O)N[C@H](C(=O)N(C)C)c1ccccc1 (Isobutyloxycarbonyl-[Chg][Morpholine(3S-CO)][X19]G[Phg]-NMe2) | 101 to 1000 nM |

same assay, conditions: Table 5; HCV NS3/NS4A protease, 30° C., pH 6.5; read-out: Ki* Range

| Ki | Structure (SMILES) |
| --- | --- |
| 1 to 100 nM | C=CCCC(NC(=O)[C@@H]1[C@@H]2[C@H](CN1C(=O)[C@@H](NC(=O)OC(C)(C)C)C1CCCCC1)C2(Cl)Cl)C(=O)C(=O)NCC=C (some centres unmarked) |
| 1 to 100 nM | CC(C)(C)OC(=O)N[C@H](C(=O)N1C[C@H]2[C@@H]([C@H]1C(=O)NC(CC1CC1)C(=O)C(=O)NCC(=O)NCc1ccccc1)C2(C)C)C(C)(C)C (some centres unmarked) |
| 101 to 1000 nM | CCCC(NC(=O)[C@@H]1[C@H]2[C@@H](CN1C(=O)C(NC(=O)OC(C)(C)C)C1CCCCC1)C2(C)C)C(=O)C(=O)NCCNC(=O)c1ccccc1 (some centres unmarked) |
| > 1000 nM | C=CCCC(NC(=O)[C@@H]1[C@H]2[C@@H](CN1C(=O)C(NC(=O)NC1CC3CCC1C3)C1CCCCC1)C2(Cl)Cl)C(=O)C(=O)NCC=C (some centres unmarked) |
| 101 to 1000 nM | C=CCCC(NC(=O)[C@@H]1[C@H]2[C@@H](CN1C(=O)[C@@H](NC(=O)OCCOC)C1Cc3ccccc3C1)C2(C)C)C(=O)C(=O)NCC=C (some centres unmarked) |

From US7592316B2, “Peptides as NS3-serine protease inhibitors of hepatitis C virus” (Schering Corporation, priority 2000, dated 2009)
